Among all 91,000 compounds or so, about 290 (0.32%) were called active. This list was built around the results that the source calls inconclusive (neither active nor inactive); the mix of calls is not that of the screen. Calls follow the shape of the dose curve; as a rule, active = well fitted inhibition curve with a large enough effect; inconclusive = small, poorly fitted or top-dose-only effect; inactive = no such curve, though single readings can be large or run the other way. Potencies beside an inconclusive call are fits to weak or partial responses and may not hold up. A structure can be active in one record and inactive in another.
What follows are compounds tested against Single-stranded DNA cytosine deaminase (Homo sapiens) (UniProt Q9GZX7) (assay: Primary qHTS assay for inhibitors of Activation Induced Cytidine Deaminase (AID): AID signal). Conditions: AID deamination FRET fluorescence, UDG-coupled, 4 h; series mostly up to 115 µM.
UniProt Q9GZX7, sequence (Q9GZX7 whole entry, looked up): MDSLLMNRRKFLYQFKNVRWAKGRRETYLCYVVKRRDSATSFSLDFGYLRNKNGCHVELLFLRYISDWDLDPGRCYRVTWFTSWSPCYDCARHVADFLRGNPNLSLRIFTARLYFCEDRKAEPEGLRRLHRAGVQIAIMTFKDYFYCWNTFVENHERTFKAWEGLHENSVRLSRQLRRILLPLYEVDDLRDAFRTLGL
Also: nearly all actives have a fitted effect of over 25% in size.
Potency is read from the fitted curve at half-maximal effect; tags tell the direction and shape of the fitted curve.

Row | Compound | Potency
1 | O=C1CCCN1c1cccc(-c2csc(-c3ccsc3)n2)c1 | inactive
2 | Cc1ccc(CN2CCCN(c3cccc(C(=O)N4CCc5ccccc54)c3)C2=O)cc1 | inconclusive: 56.2 µM [inhibitor, partial curve, poor fit]
3 | COc1ccc(N2C(=O)C(C)CS2(=O)=O)cc1S(=O)(=O)N1CCCc2ccccc21 (stereo not drawn) | inactive
4 | Cc1cc(Cl)ccc1OCC(=O)N1CCC(c2nc3ccccc3o2)CC1 | inconclusive: 50.1 µM [inhibitor, partial curve, poor fit]
5 | Cc1oc(-c2ccccc2Cl)nc1CS(=O)CC(=O)NCc1ccccc1Cl (stereo not drawn) | inconclusive: 50.1 µM [inhibitor, partial curve, poor fit]
6 | Cn1c(=O)c2sccc2n2c(CCCC(=O)Nc3ccc(Oc4ccc(Cl)cc4)cc3)nnc12 | inconclusive: 79.4 µM [inhibitor, partial curve, poor fit]
7 | CCOc1ccccc1CNC(=O)CCn1ccc2cc(S(=O)(=O)N3CCCCC3)ccc21 | inconclusive: 39.8 µM [inhibitor, partial curve, poor fit]
8 | CCc1ccc(-n2c(=O)c3c(C)c(C(=O)N(C)C)sc3n(Cc3ccccc3F)c2=O)cc1 | inactive
9 | Cc1ccc(Cl)cc1N1CCN(C(=O)c2ccc3nc(N4CCC(C)CC4)sc3c2)CC1 | inconclusive: 56.2 µM [inhibitor, partial curve, poor fit]
10 | Cc1ccccc1NS(=O)(=O)c1ccc2[nH]c3c(c2c1)CCCCC3 | inactive
11 | COc1ccc(/C=C/C(=O)Nc2ccc(Cl)c(Cl)c2)cc1 | inactive
12 | Cc1ccc(-c2nnc(SCC(=O)NCc3ccccc3)nc2-c2ccc(C)cc2)cc1 | inconclusive: 35.5 µM [inhibitor, partial curve]
13 | CNS(=O)(=O)c1cc(-c2nnc(Nc3cc(C)ccc3C)c3ccccc23)ccc1C | inconclusive: 17.8 µM [inhibitor, full curve, poor fit]
14 | C=C1C(C(=O)Nc2ccc(N(C)C)cc2)C1C(=O)Nc1ccc(N(C)C)cc1 (stereo not drawn) | inactive
15 | Cc1cccc(Cc2c(C)nc3nc(SCC(=O)NCc4ccc(F)cc4)nn3c2C)c1 | inconclusive: 50.1 µM [inhibitor, partial curve, poor fit]
16 | Cc1nc2c(-c3ccc(F)cc3)c(C)nn2c(C)c1CCC(=O)N1CCN(c2ccc(F)cc2)CC1 | inconclusive: 50.1 µM [inhibitor, partial curve, poor fit]
17 | CCCCCCCCS(=O)(=O)CCCCCCC(=O)O | inactive
18 | Cc1ccc(Cc2nc3ccccc3nc2SCC(=O)NCCc2ccccc2)cc1 | inconclusive: 50.1 µM [inhibitor, partial curve, poor fit]
19 | CCCn1cc(S(=O)(=O)c2cc(C)ccc2C)c(=O)c2cc(F)c(N3CCCCCC3)cc21 | inconclusive: 35.5 µM [inhibitor, partial curve, poor fit]
20 | COc1ccc(/C=C/C(=O)c2ccc(O)c(CCCl)c2)cc1C | inactive
21 | Cc1cc(C)c2c(=O)cc(C(=O)Nc3ccc(S(=O)(=O)Nc4onc(C)c4C)cc3)oc2c1 | inconclusive: 89.1 µM [inhibitor, partial curve, poor fit]

Row | Compound | Potency
22 | COc1ccc2c(c1)c1c(c(=O)n(-c3cccc(C)c3)c(=O)n1CC(=O)N1CCCC1)n2C | inconclusive: 89.1 µM [inhibitor, single point]
23 | NNc1ccc(Br)c2ccccc12 | inactive
24 | COc1cccc(NC(=O)c2nnn(Cc3ccc(OC)c(Br)c3)c2N)c1 | inconclusive: 44.7 µM [inhibitor, single point]
25 | Cc1ccc(CNc2ncnc3c2cnn3-c2ccc(C)cc2C)cc1 | inconclusive: 35.5 µM [inhibitor, partial curve]
26 | CN(C(=O)COC(=O)Cn1cnc2c1c(=O)n(C)c(=O)n2C)c1ccccc1 | inactive
27 | COc1ccc(NC(=O)CCNS(=O)(=O)c2ccc3c(c2)CCN3C(=O)C2CC2)cc1Cl | inconclusive: 3.55 µM [inhibitor, full curve, poor fit]
28 | O=C1CN(C(=O)COc2ccc(Cl)cc2)C(c2ccc(F)cc2)c2cc(Br)ccc2N1 (stereo not drawn) | inconclusive: 50.1 µM [inhibitor, partial curve, poor fit]
29 | O=C(C1CC1)N(Cc1ccc2c(c1)CN(S(=O)(=O)c1ccccc1)CCO2)c1ccccc1 | inconclusive: 39.8 µM [inhibitor, partial curve, poor fit]
30 | CCC(C(=O)NCc1cccc(Br)c1)n1nc(C)c2c(C)n(-c3ccccc3)nc2c1=O (stereo not drawn) | inconclusive: 39.8 µM [inhibitor, partial curve, poor fit]
31 | COc1ccc(Nc2nc3ccccc3nc2NS(=O)(=O)c2ccc(Cl)cc2)cc1OC | active: 79.4 µM
32 | COc1ccccc1-c1nc(S(=O)(=O)c2ccccc2)c(N2CCC(C)CC2)o1 | inconclusive: 39.8 µM [inhibitor, single point]
33 | Cc1ccccc1OCc1nnc(SCc2cc(=O)c3ccc(C)c(C)c3[nH]2)n1C | inconclusive: 56.2 µM [inhibitor, partial curve, poor fit]
34 | O=[N+]([O-])c1ccc(S(=O)(=O)N2CCn3cccc3C2c2ccccc2F)cc1 (stereo not drawn) | inconclusive: 25.1 µM [inhibitor, partial curve]
35 | CCOC(=O)c1c(C)oc2ncnc(N3CCN(c4ccccc4)CC3)c12 | inconclusive: 39.8 µM [inhibitor, single point]
36 | CC(C)(C)OC(=O)N1CCC(c2c(C(=O)N3CCC(c4ccccc4)C3)cnn2-c2ccc(Cl)cc2)CC1 (stereo not drawn) | active: 39.8 µM
37 | Cc1ccccc1NC(=O)c1c(NC(=O)C(F)(F)F)sc2c1CCCCC2 | inconclusive: 44.7 µM [inhibitor, partial curve, poor fit]
38 | Fc1ccc(OCc2noc(-c3ccco3)n2)c(Br)c1 | inactive
39 | O=C(NC1CCCc2ccccc21)c1csc2c1CCCC2 (stereo not drawn) | inactive
40 | CN(C(=O)c1ccc2c(c1)N(Cc1ccccc1F)C(=O)c1ccccc1S2(=O)=O)C1CCCCC1 | inconclusive: 44.7 µM [inhibitor, partial curve, poor fit]
41 | CCOc1ccc(NC(=O)Cc2ccc(-n3c(C)nc4cccnc43)cc2)cc1 | inconclusive: 100 µM [inhibitor, partial curve, poor fit]
42 | CCOC(=O)c1cc(-c2ccc(F)cc2)n(CCC(=O)NCc2ccccc2OC)c1C | inconclusive: 15.8 µM [inhibitor, full curve, poor fit]

Row | Compound | Potency
43 | Cc1cccc(OCC(=O)N(Cc2ccc(C(C)C)cc2)Cc2ccco2)c1C | inconclusive: 31.6 µM [inhibitor, full curve, poor fit]
44 | CCN(C(=O)c1nn(-c2ccc(C)cc2)c(=O)c2c1c1ccccc1n2C)c1ccc(F)cc1 | inconclusive: 79.4 µM [inhibitor, partial curve]
45 | CC(C)COc1ccc(-c2nonc2NC(=O)c2ccc(F)cc2)cc1 | inactive
46 | Cc1ccc(N2CC(NC(=O)c3ccco3)CC2=O)cc1C (stereo not drawn) | inconclusive: 22.4 µM [inhibitor, full curve, poor fit]
47 | CCOc1ccc(C(CC(=O)Nc2cc(C)c(Cl)cc2OC)N2Cc3ccccc3C2=O)cc1OC (stereo not drawn) | inconclusive: 28.2 µM [inhibitor, full curve, poor fit]
48 | Cn1c(=O)[nH]c(=O)c2c1nc(N1CCN(Cc3ccccc3Cl)CC1)n2Cc1ccc(F)cc1 | inconclusive: 63.1 µM [inhibitor, partial curve, poor fit]
49 | Cc1ccc(CNC(=O)c2sc3nc(-c4ccc(F)cc4)ccc3c2N)cc1 | inconclusive: 70.8 µM [inhibitor, single point]
50 | CC1CCCCN1Cc1c(O)ccc2c(=O)c(-c3ccccc3)coc12 (stereo not drawn) | inconclusive: 63.1 µM [inhibitor, partial curve, poor fit]
51 | CC(C)(C)c1ccc(-c2nc(S(=O)(=O)c3ccccc3)c(N3CCOCC3)o2)cc1 | inconclusive: 50.1 µM [inhibitor, partial curve, poor fit]
52 | O=C(NCC1CCCO1)c1c[nH]c2ccc(S(=O)(=O)Nc3ccc(F)cc3F)cc2c1=O (stereo not drawn) | inactive
53 | O=C(O)C1=CC(=C(c2ccc(O)c(C(=O)O)c2)c2ccc(O)c(C(=O)O)c2)C=CC1=O | inconclusive: 3.16 µM [inhibitor, full curve, poor fit]
54 | Cc1ccc(CSC2=Nc3ccccc3C3=NC(CC(=O)NCc4cccs4)C(=O)N23)cc1 (stereo not drawn) | inconclusive: 35.5 µM [inhibitor, full curve, poor fit]
55 | Cc1ccc(CNC(=O)c2cc3c(s2)-c2ccc(Cl)cc2SC3)cc1 | inactive
56 | Cc1ccc(-c2cc(C(=O)NCCN(C)C)c3ccccc3n2)cc1C | inactive
57 | CCOc1ccc(/C=C/c2nc(C#N)c(Nc3ccc(OCC)cc3)o2)cc1 | inconclusive: 70.8 µM [inhibitor, partial curve, poor fit]
58 | Cc1nc(-c2ccc(NC(=O)c3ccc(Br)o3)c(C)c2)no1 | inactive
59 | COc1cccc(-n2cc(C(=O)Nc3cc(C)c(Cl)cc3OC)c3ccccc3c2=O)c1 | inconclusive: 70.8 µM [inhibitor, single point]
60 | CCCC1Cc2c(sc3nc(SCC(=O)c4ccccc4)nc(N)c23)CO1 (stereo not drawn) | inactive
61 | Cc1ccc(CN(C(=O)COc2ccc(Cl)cc2Cl)C2CCS(=O)(=O)C2)o1 (stereo not drawn) | inactive
62 | NC(=O)COc1ccc(C2CC(=O)Nc3nc(N4CCCCC4)sc32)cc1 (stereo not drawn) | active: 22.4 µM
63 | CC(C)c1ccc(SCc2nc3c(c(=O)[nH]c(=O)n3C)n2C)cc1 | inactive
